# Data taken from the supplement of paper PMC4604168 (melanoma cell lines).
# This is one part of the list. Many values rest on one well or one pass, so single values are uncertain.
# Legend:
# Assay in all cases: cell count relative to DMSO control; melanoma cells; higher = more viable cells
# Settings in all cases: library dose: standard library concentration; 72 h
# A101D = tested on: A101D
# A2058 = tested on: A2058
# A375 = tested on: A375
# 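Further: cells treated in 1,536-well plates, then fixed and DAPI-stained, with nuclei counted from automated high-throughput microscope images.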
Compound,cell count (A101D) [%],cell count (A2058) [%],cell count (A375) [%]
"CC(C)C[C@H](NC(=O)[C@H](Cc1ccccc1)NC(=O)c1cnccn1)B(O)O [Bortezomib] + COc1cc(Nc2ncc(F)c(Nc3ccc4c(n3)NC(=O)C(C)(C)O4)n2)cc(OC)c1OC [Tamatinib] (first compound 0.005 µM, partner dose 2 µM)",6.33,7.69,83.4
"CC(C)C[C@H](NC(=O)[C@H](Cc1ccccc1)NC(=O)c1cnccn1)B(O)O [Bortezomib] + CS(=O)(=O)CCNCc1ccc(-c2ccc3ncnc(Nc4ccc(OCc5cccc(F)c5)c(Cl)c4)c3c2)o1 [lapatinib] (first compound 0.005 µM, partner dose 4 µM)",17.4,12.3,91.2
"CC(C)C[C@H](NC(=O)[C@H](Cc1ccccc1)NC(=O)c1cnccn1)B(O)O [Bortezomib] + O=C(O)c1ccc(-c2c[nH]c3ncc(-c4ccccc4)cc23)cc1C1CCCC1 [GSK650394] (first compound 0.005 µM, partner dose 0.8 µM)",8.99,14.9,73.1
"Cn1c(=O)n(-c2ccc(C(C)(C)C#N)cc2)c2c3cc(-c4cnc5ccccc5c4)ccc3ncc21 + COCC[n+]1c2c(n(Cc3cnccn3)c1C)C(=O)c1ccccc1C2=O [YM155] (first compound 0.02 µM, partner dose 0.002 µM)",64.5,25.7,57.4
